# Results from paper PMC4336329 (PLoS ONE, 2015).
# Screen size: about 310,000 compounds; about 2,200 (0.71%) showed an effect of 50% or more. Effects have a minus sign here. This is one part of the list.
# Biological target: human ether-à-go-go-related gene (hERG) potassium channel (human, UniProt Q12809)
# Test: primary screen, population patch clamp on CHO cells stably expressing hERG
# Chain of human ether-à-go-go-related gene (hERG) potassium channel (Q12809 whole entry, looked up): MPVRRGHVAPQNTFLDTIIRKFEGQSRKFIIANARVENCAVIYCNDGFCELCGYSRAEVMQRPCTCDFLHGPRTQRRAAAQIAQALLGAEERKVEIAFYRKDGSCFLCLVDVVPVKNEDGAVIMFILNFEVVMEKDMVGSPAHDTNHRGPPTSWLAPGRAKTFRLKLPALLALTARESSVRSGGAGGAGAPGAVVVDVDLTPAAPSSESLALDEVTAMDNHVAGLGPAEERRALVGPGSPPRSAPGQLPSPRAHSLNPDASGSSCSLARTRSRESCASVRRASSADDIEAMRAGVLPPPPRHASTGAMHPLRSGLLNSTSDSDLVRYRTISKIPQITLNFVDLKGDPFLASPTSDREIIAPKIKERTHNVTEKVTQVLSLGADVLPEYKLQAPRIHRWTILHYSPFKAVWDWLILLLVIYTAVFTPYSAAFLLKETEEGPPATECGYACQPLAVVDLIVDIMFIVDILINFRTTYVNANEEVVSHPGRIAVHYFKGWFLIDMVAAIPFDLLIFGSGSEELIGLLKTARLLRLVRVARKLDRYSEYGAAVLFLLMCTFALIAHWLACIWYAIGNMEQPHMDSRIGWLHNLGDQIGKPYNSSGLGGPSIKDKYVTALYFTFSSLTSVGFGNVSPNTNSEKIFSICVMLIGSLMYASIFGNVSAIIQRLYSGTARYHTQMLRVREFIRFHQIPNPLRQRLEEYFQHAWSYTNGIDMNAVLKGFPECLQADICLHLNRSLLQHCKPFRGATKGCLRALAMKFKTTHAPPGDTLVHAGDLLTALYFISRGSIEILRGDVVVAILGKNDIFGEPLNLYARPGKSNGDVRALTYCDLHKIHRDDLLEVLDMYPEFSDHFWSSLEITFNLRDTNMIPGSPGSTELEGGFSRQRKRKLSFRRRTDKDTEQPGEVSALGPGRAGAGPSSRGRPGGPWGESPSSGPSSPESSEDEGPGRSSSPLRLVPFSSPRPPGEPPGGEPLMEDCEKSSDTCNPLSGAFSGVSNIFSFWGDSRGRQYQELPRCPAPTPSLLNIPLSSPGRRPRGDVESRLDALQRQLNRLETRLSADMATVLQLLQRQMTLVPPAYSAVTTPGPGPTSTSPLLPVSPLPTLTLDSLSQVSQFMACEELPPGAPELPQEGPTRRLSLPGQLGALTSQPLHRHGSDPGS
row,Structure (SMILES),"hERG current change (%, negative = inhibition) at 1uM"
1,COC(=O)C1=C(C)N(CCc2c[nH]c3ccc(OC)cc23)C(=O)C1,4.46%
2,CCOCCn1c(SCc2ccccc2)nc2c1c(=O)[nH]c(=O)n2C,2.64%
3,Cc1nn(C)c(C)c1CN(C)C(=O)c1cc2n(n1)C(C(F)(F)F)CC(c1cccs1)N2 (centres unmarked),7%
4,COc1ccccc1Nc1nc2nonc2nc1N1CCC(C)CC1,11.1%
5,O=C(NCC(c1cccnc1)N1CCN(c2ccc(F)cc2)CC1)Oc1ccccc1 (centres unmarked),-2.05%
6,CC(OC(=O)Cc1c[nH]c2ccccc12)C(=O)c1ccccc1 (centres unmarked),10.7%
7,CCN(CC)c1ccc(/C=N/N2C(=O)c3ccccc3C2=O)c(O)c1,-2.93%
8,Cc1ccc(C2=Nc3ccccc3SC(c3cccc([N+](=O)[O-])c3)C2)cc1 (centres unmarked),12%
9,CCN(Cc1ccccc1)C(=O)CSc1nc(C)cc(C)c1C#N,4.25%
10,CC1(C(=O)O)CCC(C(=O)NC2CCCCCC2)C1(C)C (centres unmarked),-0.0323%
11,CN1CCc2nc(SCC(=O)Nc3ccc(OC(F)(F)F)cc3)c(C#N)c(-c3cccs3)c2C1,9.86%
12,O=C(NNC(=O)c1ccccc1Cl)c1ccco1,11.3%
13,N#Cc1c(-c2ccccc2)oc(=O)c2ccccc12,8.23%
14,Cn1c(C(=O)N[C@@H](Cc2ccccc2)C(=O)O)cc2cc(Cl)ccc21,13.2%
15,Cc1nn(CCc2nn[nH]n2)c2nc(-c3ccc(Br)cc3)cc(C(F)(F)F)c12,14.4%
16,Cc1ccc(S(=O)(=O)NCC(c2ccco2)N2CCc3ccccc3C2)cc1 (centres unmarked),2.72%
17,O=C(N=NC(=O)c1ccc2c(O)n(C3CCCCC3)c(O)c2c1)c1cccnc1,11.4%
18,COCCCNC(=O)c1ccc2nc(Cc3ccc(OC)cc3)oc2c1,10.8%
19,COc1ccc(-c2[nH]c(-c3ccc(C)cc3)nc2SCC(=O)Nc2nccs2)cc1,21.6%
20,CCOc1cc(/C=C\c2[nH]c(=O)[nH]c(=O)c2[N+](=O)[O-])ccc1OC(C)CC (centres unmarked),6.22%
21,CC(=O)NC(Cc1ccccc1)C(=O)NC1CCN(c2ncccc2[N+](=O)[O-])CC1 (centres unmarked),10.5%
22,Cc1ccc(S(=O)(=O)Nc2ccc(C(=O)NCc3ccccn3)cc2)cc1,0.847%

row,Structure (SMILES),"hERG current change (%, negative = inhibition) at 1uM"
1,CCOC(=O)Cn1c(=O)oc2cc(S(=O)(=O)N3CCc4ccccc43)ccc21,4.82%
2,CN(C)c1ccnc2sc3c(=O)n(-c4ccccc4)cnc3c12,0.304%
3,CCOc1ccc(NC(=O)C2CC(=O)N3CCCN=C3S2)cc1 (centres unmarked),13.4%
4,CN(CC(=O)NCc1ccccn1)S(=O)(=O)c1ccc(Br)cc1,4.07%
5,Cc1cc(C(=O)NC2CCCc3c2cnn3-c2cc(F)cc(F)c2)nn1C (centres unmarked),8.75%
6,Cc1ccc(NC(=O)COC(=O)c2cc(Cl)cc(Cl)c2)c(Br)c1,-4.16%
7,O=c1c2[nH]c3cccc(Cl)c3c2ncn1Cc1ccncc1,-4.11%
8,Cc1c(C)c2c(OCC(=O)Nc3cccnc3)cc3c(c2oc1=O)CCC(C)(C)O3,11.6%
9,Cc1cc(C(N)=O)nn1-c1c(Cl)cc(Cl)cc1Cl,11.7%
10,CCOC(=O)c1c(C)[nH]c(O)c1C=Nc1ccc(Cl)cc1,9.07%
11,COc1ccc2c(c1)SC(C)CC2=O (centres unmarked),2.94%
12,CCCCCOc1cccc(C2C(C(=O)c3cccs3)=C(O)C(=O)N2CCN2CCOCC2)c1 (centres unmarked),9.99%
13,CCc1ccc(OCc2nnc(-c3ccccc3Br)o2)cc1,10.6%
14,COCCCN(C(=S)Nc1ccc(OC)cc1)C(C)c1ccncc1 (centres unmarked),3.22%
15,O=C(c1cc2cc(Cl)ccc2[nH]1)N1CCN(c2ccccc2F)CC1,14.6%
16,COc1ccc(CC(=O)NC2CC(C)(C)NC(C)(C)C2)cc1,17.3%
17,CC(=O)Nc1ccc(N2CCCC2)cc1,14.7%
18,O=S(=O)(c1ccc(Cl)cc1)N1CCC(O)(CN2CCN(Cc3ccccc3)CC2)CC1,-75.6%
19,CC1=CN2C(=NC(=O)CC2(C)C(=O)N(CC(=O)NC2CCCC2)c2cc(C)cc(C)c2)C=C1 (centres unmarked),12.9%
20,CN(CC(=O)Nc1ccc(Cl)c(C(F)(F)F)c1)C(=O)/C=C/c1ccco1,3.73%
21,COc1ccccc1CNC(=O)c1ccc2nc3[nH]c4ccccc4c3nc2c1,-3.22%
22,O=C(CSc1nnc(SCc2ccc(Cl)cc2)s1)c1ccc2c(c1)OCO2,9.1%
